Measurements reported in PMC10897333.
These are yes or no findings as the source states them, for the method shown. Some results given as binding are weak or reduced against the parent protein; the word gives no strength.

Protein sequences, listed by entry. Tags and fused reporters are not part of them. Lines headed by an entry give the natural chain unless they say otherwise; changes in a name come on top. Chains listed by the source or under a name are the forms on record and can include a tag or linker. Residues count along the entry.
UniProt P21513: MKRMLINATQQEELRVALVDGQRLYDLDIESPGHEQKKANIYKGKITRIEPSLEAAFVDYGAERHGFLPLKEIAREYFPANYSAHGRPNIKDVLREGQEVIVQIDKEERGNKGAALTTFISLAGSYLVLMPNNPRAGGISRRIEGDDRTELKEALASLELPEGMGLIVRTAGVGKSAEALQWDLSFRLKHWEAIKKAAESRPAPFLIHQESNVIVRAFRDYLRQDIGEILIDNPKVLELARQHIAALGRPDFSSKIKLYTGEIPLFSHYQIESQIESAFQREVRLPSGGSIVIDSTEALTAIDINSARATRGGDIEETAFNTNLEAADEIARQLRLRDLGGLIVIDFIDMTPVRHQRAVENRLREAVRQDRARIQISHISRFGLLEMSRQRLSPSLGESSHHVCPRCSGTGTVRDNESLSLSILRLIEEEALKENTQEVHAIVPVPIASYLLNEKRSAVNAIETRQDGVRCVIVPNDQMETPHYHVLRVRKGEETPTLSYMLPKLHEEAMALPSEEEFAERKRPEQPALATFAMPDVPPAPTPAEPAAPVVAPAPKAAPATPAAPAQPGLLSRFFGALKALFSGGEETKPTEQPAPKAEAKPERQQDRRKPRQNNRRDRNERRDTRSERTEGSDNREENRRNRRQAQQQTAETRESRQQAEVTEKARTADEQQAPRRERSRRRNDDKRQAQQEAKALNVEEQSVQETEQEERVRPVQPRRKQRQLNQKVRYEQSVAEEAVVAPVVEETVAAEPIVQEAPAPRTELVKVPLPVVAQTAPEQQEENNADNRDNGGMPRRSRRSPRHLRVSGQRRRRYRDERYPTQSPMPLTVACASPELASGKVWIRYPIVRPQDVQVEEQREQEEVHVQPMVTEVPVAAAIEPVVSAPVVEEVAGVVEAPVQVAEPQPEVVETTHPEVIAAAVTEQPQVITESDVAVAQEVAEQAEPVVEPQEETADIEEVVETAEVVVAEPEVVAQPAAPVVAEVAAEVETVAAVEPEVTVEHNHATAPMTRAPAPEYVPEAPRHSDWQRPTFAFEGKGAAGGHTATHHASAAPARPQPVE
RNE’ (RNase E residues 378–659) fused to the T18 fragment of adenylate cyclase (pUT18C-rne^378-659): residues 378-659 of P21513
UniProt P0AEZ3: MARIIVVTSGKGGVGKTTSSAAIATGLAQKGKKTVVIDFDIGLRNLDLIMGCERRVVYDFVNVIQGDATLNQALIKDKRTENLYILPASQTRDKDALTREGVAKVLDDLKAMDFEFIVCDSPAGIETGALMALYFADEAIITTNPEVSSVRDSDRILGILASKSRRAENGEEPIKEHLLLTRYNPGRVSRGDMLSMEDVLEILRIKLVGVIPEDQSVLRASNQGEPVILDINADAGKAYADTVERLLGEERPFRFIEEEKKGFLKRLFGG

Experiments:
[1] = biological target: His-tagged RNE’ΔA, RNE’ deleted for segment A (E. coli) (UniProt P21513); experiment: far-Western, overlay or dot blot; lysates of BL21(DE3) cells overexpressing His-RNE’ or His-RNE’ΔA separated by SDS-PAGE and blotted onto nitrocellulose; membrane incubated with purified FLAG-MinD in 7.5% skim milk in PBST overnight at 4 °C, then anti-FLAG antibody; only the binder purified
[2] = biological target: His-tagged RNE’, a truncated RNase E protein (residues 378–659) (E. coli) (UniProt P21513); experiment: as above
[3] = biological target: RNE’ (RNase E residues 378–659) fused to the T18 fragment of adenylate cyclase (pUT18C-rne^378-659) (E. coli) (UniProt P21513); experiment: two-hybrid; bacterial two-hybrid (adenylate cyclase fragments T18 and T25) in BTH101; pKT25 and pUT18C plasmids; blue colour on LB X-Gal plates with 0.5 mM IPTG
[4] = biological target: RNE’ΔA (RNase E residues 378–659 deleted for segment A) fused to the T18 fragment of adenylate cyclase (pUT18C-rne^378-659ΔA) (E. coli) (UniProt P21513); experiment: as above

Row | binding [1] | binding [2] | binding [3] | binding [4] | Substance
1 | no binding | binds | – | – | FLAG-tagged MinD (from UniProt P0AEZ3 1-270)
2 | – | – | binds | no binding | MinD fused to the T25 fragment of adenylate cyclase (pKT25-minD) (from UniProt P0AEZ3 1-270)
3 | – | – | binds | – | MinD^L48R fused to the T25 fragment of adenylate cyclase (pKT25-minD^L48R) (from UniProt P0AEZ3 2-270)
4 | – | – | no binding | – | MinD^L194R fused to the T25 domain of adenylate cyclase protein (pKT25-minD^L194R) (from UniProt P0AEZ3 1-270)
5 | – | – | no binding | – | MinD^V147R fused to the T25 fragment of adenylate cyclase (pKT25-minD^V147R) (from UniProt P0AEZ3 2-270)
